# Experimental data reported in PMC12136788.
# This is one part of the list.
# B1: chr1:163117127:163117128:-_ENSG00000143248_ENST00000313961|hu_mus|hu_hu_hu_mus_False|88_88 (ssRNA)
# RNA: GGGAGUUCUACAGUCCGACGAUCUGCUACAAAGGAUGUAACUCAACACUCACAGGAACUUUUGGAAGCCUGACCAGAUGACUACUUGAUUAGCUCCUUAUAAAAUUCAGAGCGCACAAAGCGGGGCAGAGAAUCCUUCUCCAUCAACAGAGGAUUGAGCAUCA
# B2: chr1:165619138:165619139:+_ENSG00000143198_ENST00000367886|hu_mus|FALSE|FALSE (ssRNA)
# RNA: GGGAGUUCUACAGUCCGACGAUCCUUGUACUUCUUGCGGGCUUUGCCCACGUUGAUGGCUAGGUGGAGCACCAUCACAAAGCUGGCAGCACCAGUGAGAAGCACAAAUCCAUACUCCUUAGAGAGGACAGCCAUCUUGGCUCUCAACAGAGGAUUGAGCAUCA
# B3: 57919867_57919987_1532_CDS_ENSG00000166987_ENST00000355673|human|control|control (ssRNA)
# RNA: GGGAGUUCUACAGUCCGACGAUCCACAGAAGGGAGAAUUGGUUGGGAUGGCUCCGGGAGAGAAAAGGGUUGGGGGACAGGAGCAGGGGCCCGAGGACGGCUCCGUCUAGGGGUUUGAGGGCCUCUCCCUUCUAGCAAUCGAAACAACAGAGGAUUGAGCAUCA
# B4: chr16:94690093:94690094:+_ENSMUSG00000040785_ENSMUST00000117648|mus_hu|mus_mus_mus_hu_True|28_108 (ssRNA)
# RNA: GGGAGUUCUACAGUCCGACGAUCGGGGACUCCUGUGGGACACACAGCCUCGAUUCCAGGGGGAAAAAGUCUUAGUCGAUACUAAUUAAAAAGUGUUAAUGAUUUUUAUUACCAAAAUUACAUCUAUAAAAGAUGAAAAGCAAACAACAGAGGAUUGAGCAUCA
# B5: chr12:48362563:48362564:+_ENSG00000134291_ENST00000256686|hu_hu|hu_hu_hu_mus_False|1_88 (ssRNA)
# RNA: GGGAGUUCUACAGUCCGACGAUCUCCGUCAAGCCCUUCGAUAGACCCAUAGACUCUAAACUGUAAUCACUUUGUAUGGGGAAGGAAAAGAAACGCCAAAAACUUUCCAAAAAGCGGGGGUGGGGUGAGGCGGGAGGUUGGGAACAACAGAGGAUUGAGCAUCA
# B6: chr13:60863204:60863205:+_ENSMUSG00000021559_ENSMUST00000077453|mus_mus|motif|central (ssRNA)
# RNA: GGGAGUUCUACAGUCCGACGAUCCAGUCCAUAAAGACCCUACCCAAGCCAAGGCUGCCCUCACCGGGACACCACUGAGCGGAUGGAAUUGUAGGACGUGCCACUGUUACAGCUUGAGGCAUAGGCCUCCUGGCCAUUGCCAUCCAACAGAGGAUUGAGCAUCA
# B7: chr16:94651144:94651145:+_ENSMUSG00000040785_ENSMUST00000117648|mus_hu|mus_mus_mus_hu_True|68_98 (ssRNA)
# RNA: GGGAGUUCUACAGUCCGACGAUCAUUUUCUUGAAUCAAGUGACCGAUAACAUAGUCCACUGCUUCAUGGACAAAAUUUCUGCUAGAAAAACAGGUUGUAUAGUCUUCUGUGCUCAAAACUUUCCAAGAAAGCAAUUCUUUGAGCAACAGAGGAUUGAGCAUCA
# B8: 34475664_34475784_6227_CDS_ENSMUSG00000005871_ENSMUST00000115781|mouse|control|control (ssRNA)
# RNA: GGGAGUUCUACAGUCCGACGAUCGAGAGAGCUGUUUCUUGAGAAACAGACAGGGGUGUCUUCGACGUGGAAGGACUUGGGAGCAUACCCGGAUGCCUGAGGCUUACUGGGCUCUCCUUGUGAGUUGGCAGGUUCAGCUUCUUUCAACAGAGGAUUGAGCAUCA
# B9: 138451967_138452087_1602_CDS_ENSG00000189184_ENST00000344876|human|control|control (ssRNA)
# RNA: GGGAGUUCUACAGUCCGACGAUCUCUAUCCAGUGUGGCAUUAGUUAAGAUUAAAUAAUUGUUUUCAUAUGUCUUCUGAAGUUUAAAGUGACCAUGUCCAUGAAGCUUACAAACUAUUUCUCCAUUCAGCCCAGAAUCCUUGUCCAACAGAGGAUUGAGCAUCA
# B10: 55523615_55527050_5340_CDS_ENSG00000115355_ENST00000336838|human|control|control (ssRNA)
# RNA: GGGAGUUCUACAGUCCGACGAUCACUGCUGUGGCUUUGUGGCCUGCUUUGGUUAUUAACUGCACCUGCUUUGACUUCAUGUAGUGAAGCAUUAUUAUUGCUAUUGCUAGUGGAUGUUCUGCCACUAUCAAGGCUGGCUGGUCUCAACAGAGGAUUGAGCAUCA
# B11: chr11:115359251:115359252:-_ENSMUSG00000020737_ENSMUST00000021083|mus_mus|motif|central (ssRNA)
# RNA: GGGAGUUCUACAGUCCGACGAUCACACAUCAGGAACCAGAUCAUCUGUUCUUAGAAACAGUCUACUACUCCAGUCGGCGGCGGGAAAACACUCAUGCCAUGGCGCACAGACCCAGGAGUCAGACAGACAGAAGGAAAGGAAGACAACAGAGGAUUGAGCAUCA
# B12: chrX:71549400:71549401:+_ENSMUSG00000019087_ENSMUST00000019231|mus_hu|mus_mus_mus_hu_False|48_58 (ssRNA)
# RNA: GGGAGUUCUACAGUCCGACGAUCGCAGUAGGAAGAGGGAAGCUCUUCAGUCCAGUGCGCUGCAGGGUGGGAAAGCACAACCUAGACACCAAUACUCCCCUCAACCCCCCCACUGGCACAGGGUCACACAAUCUGGGUCAAAGACAACAGAGGAUUGAGCAUCA
# B13: chr8:117878989:117878990:-_ENSG00000164754_ENST00000297338|hu_mus|FALSE|FALSE (ssRNA)
# RNA: GGGAGUUCUACAGUCCGACGAUCCCAGAGGCCCUCGUUUACUGAGGACAAAAUGUGCGUAGAACAUUUUUCUUAUUUGCUAUGAAAUAAGAAGAAACCUGGAUCUCGGCGGGGAGCCGGGAGGGGUGGGUGGCCCGGGGAGGGCAACAGAGGAUUGAGCAUCA
# B14: chr3:20008827:20008828:+_ENSMUSG00000002428_ENSMUST00000002502|mus_hu|FALSE|FALSE (ssRNA)
# RNA: GGGAGUUCUACAGUCCGACGAUCAGAGGCUUUAAGUGGUAUUUCUAUUAAAGACAGGAAUGUUGUAAACUGAGAAACAACCAAACUUUUUAUGUUGGGAUUCUUCUUUCUUAAGUCAGUCAAUGCGUGCAUUAGCGCAUUAAUCAACAGAGGAUUGAGCAUCA
# B15: chr4:115894766:115894767:+_ENSMUSG00000028698_ENSMUST00000030464|mus_hu|mus_mus_mus_hu_True|1_1 (ssRNA)
# RNA: GGGAGUUCUACAGUCCGACGAUCUUCCACACGGAAAUGUACUUCGGGUUUUCCAACGGCCAGUACCAGUCCGGCCAAACUACCCGAACAGGGUCCUCCCCCUCUCUCCUACAGAACACAACAAAAUGCCCCCGAACCCCGAACCAACAGAGGAUUGAGCAUCA
# B16: chr14:62203736:62203737:+_ENSG00000100644_ENST00000337138|hu_hu|FALSE|FALSE (ssRNA)
# RNA: GGGAGUUCUACAGUCCGACGAUCUCCAGCGGCUGGGGCCAGCAAAGUUAAAGCAUCAGGUUCCUUCUUAAGUUUGUCAAAGAGGCUACUUGUAUCUUCUGAUUCAACUUUGGUGAAUAGCUGAGUCAUUUUCAUAUCUGAAGACAACAGAGGAUUGAGCAUCA
# B17: chr2:9728443:9728444:-_ENSG00000134308_ENST00000238081|hu_hu|motif|central (ssRNA)
# RNA: GGGAGUUCUACAGUCCGACGAUCUUGCAUCUCUUUCUUGCUUAUAUCAAAUGCCUCUUGGUAAGCUCCUUGGGAAUUAUCGGUCGUUUGUUUUCGAUCAUCACCACACGCAACUUCAGCAAGGUACCGGAAGUAAUCACCCUUCAACAGAGGAUUGAGCAUCA
# B18: 49752748_49760177_1554_CDS_ENSG00000102531_ENST00000398316|human|control|control (ssRNA)
# RNA: GGGAGUUCUACAGUCCGACGAUCGCCUGGUUUAUCAGGGCAAGUAGUAAAUUCUACUACUUCACUUGGAUUACUUUUACCUUCUGAGUUGUAAGCAAUAACCUUAAAUUUAUACUUAGUACUACGUCUGAGAUUUUUCACUGUCAACAGAGGAUUGAGCAUCA
# B19: chr7:65705844:65705845:+_ENSG00000169902_ENST00000304842|hu_mus|hu_hu_hu_mus_False|58_108 (ssRNA)
# RNA: GGGAGUUCUACAGUCCGACGAUCAAAAGGAUCUUUAUUACAUAAAUAAGGUGCCGGCUCCCCAUGUUUAACAAUGAUUUCUAGUAAGAAGGCUUGCAUGGCAGAAUCUAGCACUUCAUCUGUGACACCCGCCUCAUCCAAGCGCAACAGAGGAUUGAGCAUCA
# B20: 48269489_48269609_6319_3pUTR_ENSMUSG00000038143_ENSMUST00000079195|mouse|control|control (ssRNA)
# RNA: GGGAGUUCUACAGUCCGACGAUCACGUCCUCUCCUGUUCACAGGGCACUCGGUUCUUCCAAUGGCUACGUUCAGAGGGUCAGAGACUAAUGUAUUGUUUUAAUGGUCCUAUUAUUUAUGACUUGAGUAUGCCAAAAGUUUCAGCAACAGAGGAUUGAGCAUCA
# B21: 45577590_45582230_658_3pUTR_ENSMUSG00000025217_ENSMUST00000065601|mouse|control|control (ssRNA)
# RNA: GGGAGUUCUACAGUCCGACGAUCGUGACUUGGCGUCCAAGUAUGACAGAAUGUUCUCAGCGAUGUGGUCCAGACCCCGUGCUGGCAGUGCAGUUAUGAAAUCCCUCUGCAGCAUAGGUUUUAGGUAGGAGUUGAUGUGCCCAUCAACAGAGGAUUGAGCAUCA
# B22: chr7:56045873:56045874:+_ENSG00000146729_ENST00000322090|hu_mus|FALSE|FALSE (ssRNA)
# RNA: GGGAGUUCUACAGUCCGACGAUCCUUUUUGGCUAGGAGGUUGGAGUGGGCAUCUUUCCUUGGAUCGACCUUUCUGACAAACAAGGACUUUAGCCAGCUGUCUUCCCGAGCUCGGUGACUUGAGGAUGUCACUGUCCGGAGCCCCAACAGAGGAUUGAGCAUCA
# Biological target: T1, UNK ZnF1-3 (human, UniProt Q9C0B0 31-174)
# T1 sequence: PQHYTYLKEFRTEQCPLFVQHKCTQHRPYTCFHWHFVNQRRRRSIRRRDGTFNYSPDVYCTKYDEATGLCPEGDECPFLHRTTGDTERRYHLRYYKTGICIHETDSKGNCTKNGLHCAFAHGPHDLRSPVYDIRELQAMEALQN
# Assay: nsRBNS (natural sequence RNA bind-n-seq); RBNS binding buffer (assumed for nsRBNS): 25 mM Tris pH 7.5, 150 mM KCl, 3 mM MgCl2, 0.01% Triton X-100, 500 ug/ml BSA, 20 U/ml SUPERase-In, 4 C; UNK is unkempt and MSI1 is Musashi-1; names of the RNAs are library labels; protein concentration not given here; high values mean tight binding
row,Binder,binding signal
1,B1,1.26 enrichment R
2,B2,0.99 enrichment R
3,B3,1.73 enrichment R
4,B4,2.19 enrichment R
5,B5,2.82 enrichment R
6,B6,0.934 enrichment R
7,B7,0.362 enrichment R
8,B8,1.11 enrichment R
9,B9,1.98 enrichment R
10,B10,0.429 enrichment R
11,B11,1.96 enrichment R
12,B12,1.47 enrichment R
13,B13,1.21 enrichment R
14,B14,0.332 enrichment R
15,B15,1.05 enrichment R
16,B16,1.16 enrichment R
17,B17,0.848 enrichment R
18,B18,0.457 enrichment R
19,B19,0.958 enrichment R
20,B20,1.08 enrichment R
21,B21,0.915 enrichment R
22,B22,0.908 enrichment R
